# Test results taken from article PMC4336329 (PLoS ONE, 2015).
# The whole screen tested about 310,000 compounds, of which about 14,000 (4.5%) showed an effect of 50% or more. Effects have a minus sign here. This is one part of the list.
# Molecular target: human ether-à-go-go-related gene (hERG) potassium channel (human, UniProt Q12809)
# Assay: primary screen, population patch clamp on CHO cells stably expressing hERG
# 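Also: peak tail current of the secondary pulse compared with the same well before compound.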
# Sequence of human ether-à-go-go-related gene (hERG) potassium channel (Q12809 whole entry, looked up): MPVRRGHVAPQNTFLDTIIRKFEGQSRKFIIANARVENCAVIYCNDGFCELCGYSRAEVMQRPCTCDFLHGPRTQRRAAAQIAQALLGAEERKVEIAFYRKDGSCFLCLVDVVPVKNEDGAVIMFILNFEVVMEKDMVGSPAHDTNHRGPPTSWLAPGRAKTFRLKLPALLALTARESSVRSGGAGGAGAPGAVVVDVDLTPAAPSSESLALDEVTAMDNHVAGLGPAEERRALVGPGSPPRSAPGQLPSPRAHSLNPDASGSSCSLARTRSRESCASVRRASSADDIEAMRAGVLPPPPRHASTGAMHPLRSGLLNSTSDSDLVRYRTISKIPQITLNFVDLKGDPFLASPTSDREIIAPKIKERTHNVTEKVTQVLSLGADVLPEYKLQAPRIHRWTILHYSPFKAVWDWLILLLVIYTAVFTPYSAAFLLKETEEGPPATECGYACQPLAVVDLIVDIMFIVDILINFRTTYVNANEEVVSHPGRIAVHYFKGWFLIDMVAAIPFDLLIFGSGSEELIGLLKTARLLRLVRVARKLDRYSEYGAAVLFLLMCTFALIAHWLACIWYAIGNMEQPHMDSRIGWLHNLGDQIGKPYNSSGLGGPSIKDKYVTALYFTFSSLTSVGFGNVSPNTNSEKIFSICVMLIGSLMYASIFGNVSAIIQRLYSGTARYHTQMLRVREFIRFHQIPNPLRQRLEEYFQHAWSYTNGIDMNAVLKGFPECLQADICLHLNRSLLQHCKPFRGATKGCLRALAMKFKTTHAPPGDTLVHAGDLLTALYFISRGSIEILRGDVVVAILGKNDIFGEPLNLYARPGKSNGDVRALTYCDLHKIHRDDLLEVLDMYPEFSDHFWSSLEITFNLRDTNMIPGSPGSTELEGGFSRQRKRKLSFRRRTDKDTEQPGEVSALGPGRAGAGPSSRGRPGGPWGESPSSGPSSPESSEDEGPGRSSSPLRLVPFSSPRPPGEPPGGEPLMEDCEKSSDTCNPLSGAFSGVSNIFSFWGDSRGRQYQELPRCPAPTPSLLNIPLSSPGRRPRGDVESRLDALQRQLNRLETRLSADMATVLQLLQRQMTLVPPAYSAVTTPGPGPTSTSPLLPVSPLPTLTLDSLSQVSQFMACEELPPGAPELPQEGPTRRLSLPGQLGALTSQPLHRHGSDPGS
row,SMILES,"hERG current change (%, negative = inhibition) at 10uM"
1,Cc1ccc(/C=C/C(=O)N2CCN(S(=O)(=O)c3c(C)c(C)cc(C)c3C)CC2)o1,-28.3%
2,COc1ccc(Br)cc1/C=N/Nc1ccc(Cl)c(C(=O)O)c1,-1.59%
3,N#CN/C(=N\S(=O)(=O)c1ccccc1)c1ccccc1,21%
4,CC(=O)Nc1ccc(S(=O)(=O)NCc2ccc(C(=O)N3CCOCC3)cc2)cc1,8.95%
5,COc1ccc(-c2nnc(NC(=O)c3cccs3)s2)c(OC)c1,19.4%
6,Cc1cc(C)c(S(=O)(=O)N2CCCC2=O)cc1N(C)S(C)(=O)=O,14.9%
7,Cc1ccc(S(=O)(=O)N2CCOC2CNC(=O)C(=O)NCc2ccncc2)cc1 (stereo not shown),0.198%
8,CCOC(=O)C1=C(C)N(C)C(=O)NC1c1ccccc1OC (stereo not shown),-12.1%
9,CSCC[C@H](NC(=O)C1CCN(S(=O)(=O)c2ccc(C)cc2)CC1)C(=O)NC1CCS(=O)(=O)C1 (stereo partly shown),6.54%
10,Cc1nc(CC(=O)c2ccc(O)c(C)c2O)cs1,-7.55%
11,CCCCOC(=O)c1nnc(-c2ccccc2)o1,4.69%
12,CCCCn1c(N)c(N(CCOC)C(=O)C2CCN(S(=O)(=O)c3ccc(C)cc3C)CC2)c(=O)[nH]c1=O,5.28%
13,CC(=O)OC1COC(N2CCc3ccccc32)C(OC(C)=O)C1OC(C)=O (stereo not shown),18.5%
14,COc1ccccc1/C=C/C(=O)Nc1ccc(N2CCOCC2)cc1,11.3%
15,CCN(C(=O)COC(=O)CNC(=O)c1sc2ccccc2c1Cl)C1CCCCC1,8.33%
16,CC(C)C[C@H](CO)Nc1nc(Nc2cccc(Cl)c2)c2ncn(C(C)C)c2n1,3.24%
17,Cc1occc1C(=O)NC1CCCc2ccccc21 (stereo not shown),-4.3%
18,O=C(Nc1ccc2c(c1)OCCO2)c1ccc(CN2CCOCC2)cc1,7.21%
19,CCc1nnc(NC(=O)CSc2nccn2-c2ccccc2)s1,-10.5%
20,CN1CCN(c2ccc([N+](=O)[O-])cc2Cl)CC1,-52.2%
21,O=C(CCS(=O)(=O)c1ccc(Br)cc1)NCc1ccco1,-0.399%
22,COc1ccc(N2CCN(Cc3nc4ccccc4n3C)CC2)cc1,-18.2%
23,Cc1ccc2sc(NNC(=O)C3COc4ccccc4O3)nc2c1C (stereo not shown),7.62%
24,Cc1nnc2sc(SCC(=O)N3CCC(C)CC3)nn2c1=O,0.929%
25,COc1cc2c(cc1OC)-c1cc(Nc3ccccc3C)nc(=O)n1CC2,-7.32%
26,Cc1cc(C(C)(C)C)oc1C(=O)N(CC(=O)NC1CCCC1)Cc1ccc(F)cc1,12.4%
27,CCN1CCN(c2ncnc3c2c(-c2ccccc2)cn3-c2ccc(F)cc2)CC1,-74.5%
28,CC1(C(=O)OCC(=O)NC(=O)NCc2ccccc2)CC1(Cl)Cl (stereo not shown),4.66%

row,SMILES,"hERG current change (%, negative = inhibition) at 10uM"
1,CCN1C(=O)C(CC(=O)NC)N(NC(=O)c2ccccc2)C1=S (stereo not shown),-2.64%
2,CCOc1cc(N2CCOCC2)c(OCC)cc1NC(=O)C(NC(=O)c1ccco1)C(C)C (stereo not shown),-9.63%
3,O=C(COc1ccc(-c2nnc(N3CCCCC3)c3ccccc23)cc1)N1CCCCC1,-32.3%
4,COc1ccc(C(Nc2ccc(S(=O)(=O)NCC3CCCO3)cc2)C(=O)NC(C)(C)C)cc1OC (stereo not shown),11.5%
5,CCN(C(=O)COC(=O)c1c(NC(C)=O)sc(C)c1C)C1CCS(=O)(=O)C1 (stereo not shown),-40.2%
6,CCCCn1c(N)c(N(CCOC)C(=O)CSc2n[nH]c(-c3ccc(OC)cc3)n2)c(=O)[nH]c1=O,11.7%
7,Cc1cccc(C)c1N=Cc1c(O)n(-c2nccs2)c(=O)c2ccccc12,-2.54%
8,COc1ccc(S(=O)(=O)NCCSCc2ccco2)cc1Cl,-3.59%
9,Cn1c(=O)n(C)c2cc(NC(=O)CSc3nnc(-c4ccccc4O)n3-c3ccccc3)ccc21,1.62%
10,CCOC(=O)C1(Cc2ccccc2C(F)(F)F)CCN(C2CCCC2)CC1,-43.5%
11,Nc1nc(SCC(=O)NCc2ccccc2Cl)[nH]c(=O)c1NC(=O)c1ccccc1F,10.8%
12,Cc1c(NC(=O)CCCCCN2C(=O)C3C4C=CC(C4)C3C2=O)c(=O)n(-c2ccccc2)n1C (stereo not shown),15.9%
13,O=C(CN(CCc1ccccc1)Cc1ccccc1)Oc1ccccc1P(=O)(O)O,6.14%
14,O=C1c2ccccc2CN1CCNC(=S)NC1CCCCC1,-7.82%
15,Cn1c(=O)c2c(nc3n2CC(O)CN3c2ccccc2)n(C)c1=O (stereo not shown),11.7%
16,CC1CN(C(=O)CCC(=O)NCCCN2CCC(Cc3ccccc3)CC2)c2cc(Cl)ccc2O1 (stereo not shown),-72.7%
17,CCOC(=O)Cn1cnc2c(cnn2-c2ccc(Cl)cc2)c1=O,-4.32%
18,O=C(NC1CCCCC1)c1n[nH]c2c1CC(c1ccccc1)CC2 (stereo not shown),13.9%
19,CCOC(=O)C1CCN(c2ncnc3c2oc2ccc(Cl)cc23)CC1,-23.8%
20,CCCOc1ccc(CSC(=N)N)cc1C(=O)OC.Cl,-0.181%
21,COc1ccccc1C(=O)COC(=O)Cn1[nH]c(=O)c2ccccc2c1=O,6.78%
22,CCOC(=O)c1[nH]c2ccccc2c1N=CN(CC)CC,-60.8%
23,CCNc1nc(NCC)n2c(SCC(=O)c3ccccc3F)nnc2n1,2.77%
24,CCOc1cc2[nH]c(=S)n(Cc3ccc(C(=O)O)cc3)c(=O)c2cc1OCC,13.2%
25,OCC[C@@H]1C[C@@H](O)[C@H](O)[C@@]2(OCc3ccccc32)O1,20.8%
26,CCOc1ccc(OCCOCCOc2ccccc2Cl)cc1,-0.437%
27,COc1cccc(CNC(=O)CN(C)S(=O)(=O)c2ccc3c(c2)c(=O)n(C)c(=O)n3C)c1,9.12%
